Source: article PMC9576782
These are yes or no findings as the source states them, for the method shown. For part of these data: In cells and extracts the contact can be indirect. Some entries that bind do so weakly or less than the wild type.

The chains behind the UniProt entries cited, without tags or fusion partners. Where a name states a change or a piece, a line headed by the entry shows the natural chain unless it says otherwise. A line that says so, or that is headed by a name, gives the form on record, which may keep a tag or linker. Residues count along the entry.
UniProt P05412: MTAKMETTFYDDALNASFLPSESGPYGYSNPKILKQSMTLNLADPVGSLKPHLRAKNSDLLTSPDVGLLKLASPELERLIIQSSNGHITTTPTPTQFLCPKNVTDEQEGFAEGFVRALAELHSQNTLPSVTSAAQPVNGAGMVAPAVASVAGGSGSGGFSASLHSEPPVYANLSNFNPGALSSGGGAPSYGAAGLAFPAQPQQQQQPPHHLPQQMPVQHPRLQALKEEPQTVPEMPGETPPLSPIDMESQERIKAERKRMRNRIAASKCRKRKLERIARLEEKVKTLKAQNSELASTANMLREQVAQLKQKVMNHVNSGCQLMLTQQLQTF
GST-c-JUN TAD 2TA (T91A/T93A, residues 1-151), phosphorylated by JNK1 (P05412, form named): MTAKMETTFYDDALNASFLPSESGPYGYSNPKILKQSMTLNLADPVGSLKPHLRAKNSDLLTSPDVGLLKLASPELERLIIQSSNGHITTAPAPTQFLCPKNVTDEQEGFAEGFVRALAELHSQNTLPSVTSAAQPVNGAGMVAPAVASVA
UniProt Q9NQB0: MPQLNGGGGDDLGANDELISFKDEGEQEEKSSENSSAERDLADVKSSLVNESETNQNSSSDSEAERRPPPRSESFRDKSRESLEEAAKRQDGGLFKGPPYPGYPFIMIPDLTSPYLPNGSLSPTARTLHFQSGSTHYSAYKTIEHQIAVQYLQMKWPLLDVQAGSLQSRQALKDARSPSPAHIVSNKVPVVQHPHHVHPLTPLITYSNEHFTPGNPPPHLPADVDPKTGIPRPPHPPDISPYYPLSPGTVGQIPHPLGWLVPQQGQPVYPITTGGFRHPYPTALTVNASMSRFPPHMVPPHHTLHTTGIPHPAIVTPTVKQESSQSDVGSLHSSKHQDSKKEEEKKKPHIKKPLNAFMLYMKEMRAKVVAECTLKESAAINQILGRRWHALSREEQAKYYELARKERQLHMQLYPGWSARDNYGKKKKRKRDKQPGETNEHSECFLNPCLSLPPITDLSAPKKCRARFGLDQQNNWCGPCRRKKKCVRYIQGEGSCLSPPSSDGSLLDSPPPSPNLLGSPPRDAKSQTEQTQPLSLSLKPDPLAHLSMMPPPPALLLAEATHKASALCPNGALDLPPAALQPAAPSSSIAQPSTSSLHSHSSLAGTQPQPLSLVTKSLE

Columns and labels:
[1] = molecular target: Flag-tagged c-JUN wild-type (UniProt P05412); assay: co-IP; Flag-c-JUN wild-type or mutants transiently expressed in HCT116 cells treated with JNKi or additionally with anisomycin for the indicated times; anti-FLAG M2 magnetic beads, 16 h at 4 °C; immunoblot for endogenous TCF4
[2] = molecular target: Flag-tagged c-JUN 4A (S63A/S73A/T91A/T93A) (UniProt P05412); assay: as above
[3] = molecular target: Flag-tagged c-JUN 2TA (T91A/T93A) (UniProt P05412); assay: as above
[4] = molecular target: Flag-tagged c-JUN 2SA (S63A/S73A) (UniProt P05412); assay: as above
[5] = molecular target: Flag-tagged c-JUN wild-type (UniProt P05412); assay: condition: only cells treated with anisomycin until c-JUN was completely phosphorylated; co-IP; as a3, cells treated with anisomycin until c-JUN was completely phosphorylated; anti-FLAG M2 magnetic beads, 16 h at 4 °C; immunoblot for endogenous TCF4
[6] = molecular target: GST-c-JUN TAD 2TA (T91A/T93A, residues 1-151), phosphorylated by JNK1 (human) (UniProt P05412); assay: pull-down; 10 ug GST-c-JUN TAD (unphosphorylated, or phosphorylated by JNK1) on glutathione sepharose beads; purified recombinant MBD3 or TCF4, 3 h at 4 °C; 25 mM Hepes pH 7.5, 100 mM NaCl, 5 mM DTT, 10% glycerol; immunoblot; both purified

binding [1]	binding [2]	binding [3]	binding [4]	binding [5]	binding [6]	Substance
binds	no binding	binds	no binding	no binding		TCF4 (TCF7L2), endogenous in HCT116 cell extracts (from UniProt Q9NQB0 1-619)
					binds	recombinant human full-length TCF4 (residues 1-619) (from UniProt Q9NQB0 1-619)
